# Data published in PubChem BioAssay (NCATS).
# Inconclusive means that the source gave no clear call. Such entries were picked first, then a sample of the others. No potency is given beside an inconclusive call; the fits are too rough. Calls of active or inactive are those of the source. Calls come from the whole dose curve; as a rule, active = well fitted cell-killing curve with a large enough effect; inconclusive = small, poorly fitted or top-dose-only effect; inactive = flat fitted curve, though single readings scatter.
# Experiment: Cellular viability qHTS for adrenocortical cancer (ACC) cell line SW-13 (AID 1963989); note: nearly all actives have a fitted effect of over 65% in size
# Conditions: SW-13 ACC cells viability, CellTiter-Glo, 48 h; activity (max response): hits give low values
# How it was run: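 Viability was read as CellTiter-Glo luminescence after 48 h compound treatment (up to 46 uM final) of SW-13 cells grown serum-free; titration curves were fit with a four-parameter logistic model to give IC50 and efficacy.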
# Potency is the fitted concentration of half-maximal effect; tags give direction and shape of the fitted curve.
row,Structure (SMILES),Potency
1,CN1C[C@@H]2c3ccccc3Oc3ccc(Cl)cc3[C@H]2C1,"inconclusive [cytotoxic, partial curve, poor fit]"
2,O=C1OC2(c3ccc(O)cc3Oc3cc(O)ccc32)c2ccccc21,"inconclusive [cytotoxic, single point]"
3,Cc1ccc(NC(=O)c2ccc3c(c2)OCCO3)cc1NC(=O)c1ccc2nc(OCCN3CCCC3)ccc2c1,active: 0.802 µM
4,[2H]C([2H])(Nc1nc(-c2ccccc2C([2H])(C([2H])([2H])[2H])C([2H])([2H])[2H])ncc1C)c1ccc(-n2ccnn2)cc1,"inconclusive [cytotoxic, partial curve]"
5,CCOC(=O)[C@H](CCc1ccccc1)N[C@@H](C)C(=O)N1Cc2ccccc2C[C@H]1C(=O)O,"inconclusive [cytotoxic, partial curve, poor fit]"
6,N#C/C(=C1/Nc2ccccc2S1)c1ccnc(OCc2ccc(CN3CCOCC3)cc2)n1,"inconclusive [cytotoxic, single point]"
7,C[C@H]1C[C@H]2[C@@H]3CCC4=CC(=O)C=C[C@]4(C)[C@H]3C(=O)C[C@]2(C)[C@@]1(O)C(=O)CO,"inconclusive [cytotoxic, single point]"
8,O=C(/C=C\n1cnc(-c2cc(C(F)(F)F)cc(C(F)(F)F)c2)n1)N1CC(F)(F)C1,"inconclusive [cytotoxic, full curve]"
9,CC1(C)CCC2(CC1)N[C@@H](C(=O)N[C@@H]1CC[C@@H](C(N)=O)OC1)[C@H](c1ccnc(Cl)c1F)[C@]21C(=O)Nc2cc(Cl)ccc21,"inconclusive [cytotoxic, single point]"
10,Cn1c(NC[C@@H](N)Cc2ccccc2)nc(-c2ccncc2)c(-c2ccc3ccccc3c2)c1=O,active: 28.2 µM
11,Cc1ncsc1-c1ccc([C@H](C)NC(=O)[C@@H]2C[C@@H](O)CN2C(=O)[C@@H](NC(=O)COCCCOCCNC(=O)C[C@@H]2N=C(c3ccc(Cl)cc3)c3c(sc(C)c3C)-n3c(C)nnc32)C(C)(C)C)cc1,"inconclusive [cytotoxic, full curve, poor fit]"
12,Cc1c[nH]c(/C=C2\C(=O)Nc3ccccc32)c1CCC(=O)O,"inconclusive [cytotoxic, single point]"
13,C=C1C[C@@H]2CC[C@@]34C[C@H]5O[C@H]6[C@@H](O3)[C@H]3O[C@H](CC[C@@H]3O[C@H]6[C@H]5O4)CC(=O)C[C@@H]3[C@@H](OC)[C@@H](C[C@H](O)CN)O[C@H]3C[C@H]3O[C@@H](CC[C@@H]1O2)C[C@@H](C)C3=C,"inconclusive [cytotoxic, full curve, poor fit]"
14,CCCOc1ccccc1-c1nc2n[nH]nc2c(=O)[nH]1,"inconclusive [cytotoxic, single point]"
15,[O-][n+]1cccc(-c2nc3c(Cl)cccc3cc2[C@@H](Nc2ncnc3cccnc23)C(F)(F)F)c1,"inconclusive [cytotoxic, single point]"
16,Nc1nc2cc(-c3ccc4ncc(C(=O)N5CCOCC5)n4c3)ccc2o1,"inconclusive [cytotoxic, partial curve]"
17,Nc1nc(OC(c2ccc(-c3cccc(F)c3)cc2)C(F)(F)F)cc(-c2ccc(C[C@H](N)C(=O)O)cc2)n1 (stereo partly drawn),"inconclusive [cytotoxic, single point]"
18,Nc1cccc2c(N)cccc12,"inconclusive [cytotoxic, partial curve, poor fit]"
19,Cc1c(O)cccc1C(=O)NC(CSc1ccccc1)C(O)CN1CC2CCCCC2CC1C(=O)NC(C)(C)C (stereo not drawn),active: 28.2 µM
20,CC(=O)Oc1ccc(C2(c3ccc(OC(C)=O)cc3)Oc3ccccc3NC2=O)cc1,"inconclusive [cytotoxic, single point]"
21,CC1(C)C(N(O)C(=O)Nc2ccc(Cl)cc2)N(c2ccc(Cl)cc2)C(=O)N1CC(=O)N/N=C/C=C/c1ccc([N+](=O)[O-])o1 (stereo not drawn),active: 25.1 µM
22,CCCCC/C=C\C/C=C\CCCCCCCC(=O)NC(C)c1ccccc1 (stereo not drawn),"inconclusive [cytotoxic, single point]"
23,COC(=O)N[C@H](C(=O)N1CCC[C@H]1c1ncc(-c2ccc(-c3ccc(-c4cnc([C@@H]5CCCN5C(=O)[C@@H](NC(=O)OC)C(C)C)[nH]4)cc3)cc2)[nH]1)C(C)C,"inconclusive [cytotoxic, single point]"
